Measured values as given in PMC10726135.
This is one part of the list. At the low end of the ranking the order means little. The protein was read in a cell extract, so binding may be indirect.

What follows are sequences tested against T1, HNF4alpha2 (COS-7 nuclear extract) (UniProt P41235) (assay: protein-binding microarray). Details: COS-7 nuclear extract on double-stranded Agilent 4x180k PBM; binding buffer, salt, pH and temperature not given; high values mean tight binding; double strand, one strand shown; sequences stand for … in …GCCTAGGGAGATTAGAGTATCGGTCGA.
T1 sequence: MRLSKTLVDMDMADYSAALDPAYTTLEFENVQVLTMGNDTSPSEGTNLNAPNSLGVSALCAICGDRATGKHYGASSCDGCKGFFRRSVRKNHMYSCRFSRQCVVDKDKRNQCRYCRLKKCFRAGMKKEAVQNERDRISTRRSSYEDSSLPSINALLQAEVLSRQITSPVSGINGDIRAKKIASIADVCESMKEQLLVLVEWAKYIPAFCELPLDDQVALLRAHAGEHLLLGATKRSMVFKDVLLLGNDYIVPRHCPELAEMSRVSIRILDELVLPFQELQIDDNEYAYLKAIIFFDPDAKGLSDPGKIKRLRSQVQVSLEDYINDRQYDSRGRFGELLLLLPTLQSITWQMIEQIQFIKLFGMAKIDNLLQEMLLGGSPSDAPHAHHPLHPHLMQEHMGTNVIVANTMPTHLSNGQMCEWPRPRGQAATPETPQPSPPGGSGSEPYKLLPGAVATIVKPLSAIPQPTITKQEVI

Sequence	binding signal (log2 normalized intensity)
CTTTGCCTGCCCATCCCGTGGACTCTGCCT	3.75
CTACATTAGCAGCGCCACCAACCATAATTT	2.19
GCTACACGGGCCTGAAAACTGGAGGCCGCG	-1.14
ATGTTTTTGTGTGAGGGAGAAGTTTTATGG	2.31
CAGCTGCTGGTCAAAGGGCATTACTTGCTG	3.19
TAGCTTTAGCCGGACTTTGTCCTTTGATTT	6.43
TCCTCTCTGAAGGATTTAAATGGAATGACC	2.41
ATTAGCTGGGGACCCGTCGCTGCTGCACAC	-1.1
TTGGGGAAGAATAGATTCCATAGATAAGAG	-1.24
CTACCTGACCTGGCATACTACAGAAATCTT	-1.05
CCTTCAAATCAGCCAGTGATTCAACTCTGA	0.879
ATGGAAGCCTTACCAGTAGGACCACATTCA	-0.858
AAGAAGGTTTACTCAAGCAAAAAGTTTGGA	0.467
TTTCAGACTATTTTATTTTCCCCCTTTGAA	3.86
GACCCAAGAAATAAAAACAGCTGGGTTCCA	-1.14
TTGCCCCTTTGACCCTCGGGCCTCCCTAGA	3.97
GCAATATGATAACCCAGTGCAATGCCTAAA	-1.06
AAAACCACTGTGCTCTGAAAAGTGAACTGT	2.1
CATGGTTTGCAAGACCTCTGAGAACTGGCC	-1.19
CCCACCCCCAAATCCCCTTCAAGTCTGAGA	4.83
TTCTTTCCCTCCAGCCCACTTACCACCCAC	4.32
GATAAGAAAAACTGAGCTTTAGATAGCTGT	-1.05
CGCTTGAGCCTGGGAGGCAAAGGTTGCAGT	2.16
GGCGGGGAGAGGGAAGAGTCTTCTCTTGAC	-1.1

Sequence	binding signal (log2 normalized intensity)
CTAAAACCCATATCTGACTGATGCTAAAGT	0.16
AGCCTTTTGTCTGGTGGAGTAGAGCACATT	1.06
CTGAAGTGGCCCAAGATGGAGATGAGAAAC	-1.12
ACATCCTGGGTTATGATCCTGGCTCTCCCA	-0.952
ATGGGGGCTCAGGGCCTCTCTTCTTGTAAT	0.668
TCTGGTTTGACCTTAAGTCAGAAGAACTGA	2.56
AGGTCAGTCGACCCTCTCTGGATGCAGGTC	1.37
TAATGAAATACCACTGCACACATAATAGAT	-1.11
GGTCGGAAGGGAGGTGCCATGTCACCGCAC	-0.663
CATCCCACATTCCACAGACTCACTTCCAGA	-1
CCAGGTGGCTGCATCCTTCTCCTCCCCTCC	3.25
GAAAAATGAATAACTTGAATTGATTGCCAA	-0.966
TACAGCTCATTAATCATCCGTCACCCAGAC	1.16
TGATTACCAGACAAGATCAATCAATTTACC	-0.976
TCAGTGTTTTCACTGCTGGGTTTCTTCCCT	1.19
AACGGCCCAGGGTTAGAGGATGACCTTCCC	2.99
GTTGACCTTTAGTCTCTAGCCCCGCCCAGA	4.82
CTTTCTAATCTCAAAGTGTCAGTCCAGAGT	2.22
CTCTGATCCTAGTCTTTGCCCCACTGCAAG	2.95
CTGGAGGATAAAGTTCAAGTAGATAAAATC	1.37
CTGACTAAAGTTCATTGCTTTGAGCATGAG	1.5
CTTTGGAGGGAGCCAGGTTATGCAGAGCTT	-0.998
GTGACTTGCTCAGTGTCACAGACTTAGCAC	-0.428
CAGTCAGTGAGACGTTCCAAACCGGTCTTT	0.302

Sequence	binding signal (log2 normalized intensity)
TCACCAGATACTGAATCTCCCAGTGCTTTG	-0.955
GTGTCTTATCTTCCTCTGGCATCTGGTCAG	1.63
CTTTACCCCCATTTGGTAATGGGCCCCCAT	5
GATAGATGCTGCTCTCCCACTCCCCCTGCT	3.86
TGCTTCCAAGTTATGCAGACCTTTGCCCTT	7.17
CCTGCCCTTTGCTCCAGAGGAAGATATTAT	1.81
AAGTTTGGTAAGCAGACCCCTACTGGGGAT	-0.74
TCAGCAGGATTTGTTTGATTTAGGACTTAC	0.991
GGCCCCTCTCTTTTATTATATTGAATTCCT	0.242
GGATTAGCGATCATGGGTGACCCGTTAAGA	1.36
CCGTCCCAAGCTGAGGTCTGGTGTCCAGTT	1.2
TTCATCATGATTGTAGCCAAACTCACAGCT	-0.386
ACTCAAGATAGAGGGCTGCCAAAGCTCACA	-1.14
GTACTTAAAAATGCCTTTCATCTTTGAGAA	-0.717
TGGACTAGGCAAAAGACAGTGATTGTCACA	-1.13
CCTGTTCAAACTAAACCTAAAGATTCTAAG	-1.11
CTTCATCTTCAATACAGAGTCCAAATTCCT	3.25
AATACATAAAGTCCAAACCCCTATGTTTAA	2.11
GCGGGGCCTCCCAGTGGTATGCCTCTGGGT	-0.781
AGGGGTTAACCTCTATTGACCTTCTTATTT	2.97
AGAGATTAAAGGTCAAGCCCAACCAAAGTA	3.11
AAGGAAGGTGGGGGCCGCCCATTGGGATCC	-1.1
GCCCTTTGGATTTAGGCAGTTTTTGATCAA	1.83
CCAGGGAACAAGGGGTGGATCTCTGTCATG	-0.992

Sequence	binding signal (log2 normalized intensity)
AGAGCAGGTGCTCGGTGAGTGCTTCTTGAA	-1.09
ACTGCACACCGTCCAGAGGCTCCAAAGGAC	-0.959
AAAAGGCCGTTCAAAGGCAGCCTTCGTTTG	-1.15
GGCAGGGCCAGATAAAGCAGGTTGTACCTT	2.4
ATGATACCCCAGAGTACAGCACTTTGGCGT	1.53
GCCACCCTCCTCTCTGGGTCAAAGGTCATC	9.58
GGGAAACACAGACTCCAAAGAATGGAAGGC	-0.871
AATTTGACCTCATTTGCTCCCAGTGCACAC	0.992
AGGGCAAGGGACAGGGGCCCAAGATAAAGG	-0.869
GTTGACCACCTGCCCCAGGAATGCCTTTTC	1.99
CACTTCCCGAGTGAGGCAATGCCTCGCCCT	-1.29
ACCAAGGGTCATGCTGGTCTCCTTGCCCCA	1.74
GGGTGGCCCTCTCCCGGGGAGGTCAACCAG	2.58
AGAAGCCAGGGACCAGGAAGGCAGTAAGAG	-1.17
GAATGCTTGTCTAGTAATTGCTACTTCCGG	-0.366
TGATGTTAACACAAGTTATTACCGTGATGT	1.48
AGTTTTTACTGGACTTGATCCATTCTACCC	1.04
AGAAAACGTTCACGTCTCAAGCTTCAGGAG	-1.12
CCCTCCCACGCACTCGCCTGACTCCCTGAC	2.16
CAAGCCCCTGACCAAGGGTCATGCTGGTCT	2.29
GGACTTGGTAAAGTCAATAATCTAGAAACC	-1.15
